Measured values taken from PubChem BioAssay AID686979 (National Center for Advancing Translational Sciences (NCATS), 2013).
Hit rate of the full screen: of about 420,000 compounds, about 50,000 (12%) were called active. Inconclusive results, whose numbers are uncertain, are shown with a selection of clear calls. Calls follow the shape of the dose curve; as a rule, active = well fitted inhibition curve with a large enough effect; inconclusive = small, poorly fitted or top-dose-only effect; inactive = flat fitted curve, though single readings scatter. No potency is given beside an inconclusive call; the fits are too rough.
% is scaled to controls: 0 for no effect and ±100 for the full control effect; potency is read from the fitted curve at half-maximal effect; tags tell the direction and shape of the fitted curve.

Experiment: qHTS for Inhibitors of human tyrosyl-DNA phosphodiesterase 1 (TDP1): qHTS in cells in presence of CPT; also: nearly all actives have a fitted effect of over 55% in size
Settings: chicken DT40 Tdp1-/-;hTDP1 cells + 20 nM CPT, ATP luminescence, 48 h; activity change, negative = growth inhibition: at 46.2 µM (top of the series) unless noted
Summary of the method: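 Chicken DT40 Tdp1-/- cells complemented with human TDP1, 400 cells/well, exposed to compounds plus 20 nM camptothecin for at least 48 h at 37 C; viability read as ATP content by CellTiter-Glo luminescence.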
For `Cc1ccc(C(=O)NCC(=O)OCC(=O)NCC(F)(F)F)cc1`, the Potency was “inactive”. In the case of `CNS(=O)(=O)c1cc(OC)ccc1OC`, the activity change, negative = growth inhibition is reported as inconclusive: -13.5% [inhibitor]. With `COc1ccccc1-c1cc2nc(C)c(CCC(=O)NCc3ccc(F)cc3)c(C)n2n1` the Potency was inconclusive [inhibitor, single point]. For `CCOC(=O)c1nnc(-c2ccccc2)nc1Oc1ccc(Cl)cc1`, the Potency was active: 20.6 µM. With `Cc1ccc(-c2nc(-c3ccncc3)no2)c(C)c1` the Potency was “inactive”. In the case of `O=C(c1cc2cccc([N+](=O)[O-])c2oc1=O)N1CCOCC1`, the Potency is reported as “inactive”. For `COc1ccccc1N1CCN(Cc2nc(-c3ccc(F)cc3)oc2C)CC1`, the Potency was inconclusive [inhibitor, single point]. In the case of `CC1(C)CC(CCNS(=O)(=O)c2ccccc2)(c2ccccc2)CCO1` (stereo not given), the activity change, negative = growth inhibition is reported as inconclusive: -30.3% [inhibitor]. In the case of `CC1CCN(C(C(=O)Nc2ccc(C(C)C)cc2)c2ccc3c(c2)OCO3)CC1` (stereo not given), the Potency is reported as inconclusive [inhibitor, single point]. With `CC(/C=C1\SC(=S)N(CCC(=O)Nc2nc(C)cs2)C1=O)=C\c1ccccc1` the Potency was inconclusive [inhibitor, single point]. For `COc1cccc(CN2CCC(n3nccc3NC(=O)CCCc3ccccc3)CC2)c1`, the Potency was inconclusive [inhibitor, single point]. With `O=C(OCc1cn([C@H]2CN(C(=O)C3CCCCC3)[C@@H](c3ccccc3)C[C@@H]2O)nn1)c1ccccc1` the Potency was inconclusive [inhibitor, single point]. In the case of `COc1ccc(C(=O)C(=NN)c2ccccc2)cc1`, the Potency is reported as “inactive”. In the case of `COc1cc(-c2nc(-c3ccccc3)c(-c3cc([N+](=O)[O-])ccc3C)[nH]2)cc(OC)c1OC`, the Potency is reported as active: 18.4 µM. For `C[N+](=O)C1C(=O)Nc2ccccc21` (stereo not given), the Potency was “inactive”. For `Cc1ccc(NC(=O)c2cncc(Br)c2)cc1S(=O)(=O)N(C)C`, the Potency was inconclusive [inhibitor, single point]. In the case of `O=C(Nc1ccccc1SCC1CSc2nc3ccccc3c(=O)n21)c1cccc(Cl)c1` (stereo not given), the Potency is reported as inconclusive [inhibitor, partial curve]. In the case of `COc1ccc(NC(=S)N2CCC(c3nc4ccc(Cl)cc4[nH]3)CC2)c(OC)c1`, the Potency is reported as inconclusive [inhibitor, single point]. With `Cc1cccc(Cc2nc3ccccc3[nH]2)c1` the Potency was “inactive”. For `CC1=C(/C=C/C(C)=C/C=C/C(C)=C/C=C/C=C(C)/C=C/C=C(C)/C=C/C2=C(C)CCCC2(C)C)C(C)(C)CCC1`, the Potency was inconclusive [inhibitor, single point].
